Values joined by “and” are separate entries in the source; they are usually repeats but may differ in a detail not shown here. Identical values can stand only once.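 Protocol summary: plate cells (96-well), add compound at 5 concentrations, incubate 48 h, interpolate endpoints linearly. The concentration for 50% growth inhibition is given as GI50. TGI: total growth inhibition.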

Here are results for 63 compounds from PubChem BioAssay (NCI).

The assay concerns NCI-H322M lung. The experiment in a line: growth of human tumour cells (NCI), 48 h.

Turning to `Cc1cccc(NC(=O)C(=O)C2C(=O)NC(=O)NC2=O)c1C`, the TGI is greater than 100 µM.

For `O=C(N/N=C\c1cccc2ccccc12)Nc1ccc([N+](=O)[O-])cc1`, the TGI is greater than 100 µM.

Regarding `OCC(O)C(O)c1nn(-c2ccccc2)c2nc3cc(Cl)c(Cl)cc3nc12` (stereo not given), the TGI was greater than 100 µM.

Regarding `CCN1CCN(c2nc(NNC(=O)Cc3ccccc3)nc(N3CCN(C(c4ccccc4)c4ccccc4)CC3)n2)CC1`, the GI50 is 3.46 µM and the TGI was determined as 15.5 µM.

In the case of `S=C(N/N=C\C=N/NC(=S)N1CCCCCC1)N1CCCCCC1`, the TGI is greater than 100 µM.

On to `O=C1c2[nH]cc(CN3CCNCC3)c2C(=O)c2c1c(O)c1ccccc1c2O`, for which the GI50 was 1.98 µM and the TGI amounted to 8.07 µM.

As for `C/C(=C/CO[Si](C)(C)C(C)(C)C)C(=O)N(C)c1ccccc1I`, the TGI was 31.1 µM.

As for `O=C(N/N=C(/c1nc2ccc(Cl)cc2[nH]c1=O)C(O)c1ccc(Cl)cc1Cl)c1ccncc1` (stereo not given), the TGI was greater than 100 µM.

As for `CCOC(=O)c1cc2c(OC(C)=O)ccc(OC(C)=O)c2s1`, the TGI turned out to be 27.5 µM.

Turning to `COC(=O)C[CH](C(=O)OC)[Ge]([CH3])([CH3])[S]c1ccccc1` (stereo not given), the GI50 was greater than 100 µM and the TGI is greater than 100 µM.

Turning to `C/C(=C\c1ccc(Cl)cc1)C(C)(C)C(=O)O`, the TGI was greater than 100 µM.

Compound `O=C1C2c3[nH]c4ccccc4c3[C@@H]3CCCCCCCCCCC3C2C(=O)N1c1ccccc1` (stereo not given in full) came in with a TGI greater than 100 µM.

On to `Cc1cc(C)cc(-n2c3nc(=O)n(C)c(=O)c-3nc3ccccc32)c1`, for which the TGI was 92.8 µM.

`C=C1CCC2C3(C)COC(c4ccc(NC(C)=O)cc4)OC3CCC2(C)C1C/C=C1/C(=O)OCC1O` (stereo not given): the GI50 was greater than 100 µM and the TGI is greater than 100 µM.

`O=C(C1=C(C(=O)c2ccccc2)SC2(S1)C(C(=O)c1ccccc1)=C(C(=O)c1ccccc1)Sc1c2ssc1=O)c1ccccc1`: the TGI is greater than 100 µM.

As for `NC(Cc1cc(I)c(O)c(I)c1)C(=O)O` (stereo not given), the TGI is greater than 500 µM.

For the compound `COc1ccc(/C=C/c2c(C(=O)/C=C/c3ccc(Cl)cc3)c(C)nc3ccccc23)cc1`, the GI50 was 1.55 µM and the TGI was 3.06 µM.

The compound `O=C1NC(=S)N/C1=C/c1ccccc1O` yielded a TGI greater than 100 µM.

Consider `O=P(Oc1ccc(Cl)cc1)(Oc1ccc(Cl)cc1)N1CC1`, for which the TGI is greater than 10 µM.

Consider `Nc1nc2c(ncn2C2OC(CO)C(O)C2N)c(=O)[nH]1` (stereo not given), for which the TGI was greater than 100 µM.

`O=C(O)c1c(O)c2cc(Br)ccc2oc1=O`: the TGI was greater than 100 µM.

Take `Cc1cnc[nH]c1=O`: the TGI was greater than 100 µM.

`CCOC(=O)c1nc2c3c(ncn2n1)Oc1c(c(-c2ccccc2)nn1-c1ccccc1)C3c1ccc(Cl)cc1` (stereo not given) registered a TGI greater than 100 µM.

Compound `O=C1c2ccccc2C(=O)c2c(NCCCNCCO)ccc(NCCCNCCO)c21` returned a TGI of 23.9 µM.

Regarding `Cc1c2c3cc(O)ccc3nc-2n(C)c2ccccc12`, the TGI turned out to be 4.5 µM.

In the case of `CC1=C(C(=O)OCCc2ccc([N+](=O)[O-])cc2)C(c2ccccc2[N+](=O)[O-])C(C(=O)OC(C)C)=C(C)N1` (stereo not given), the TGI was greater than 100 µM.

The compound `N/C(=N\NS(=O)(=O)c1ccccc1)Oc1ccc(Cl)cc1` had a TGI greater than 100 µM.

In turn, `COc1cc([C@@H]2c3cc4c(cc3[C@@H](NC(=O)c3ccc(N)cc3)C3COC(=O)[C@@H]32)OCO4)cc(OC)c1O` (stereo not given in full) yielded a TGI greater than 100 µM.

In the case of `CCCCCCCCCCCCn1c(C)nc2ccccc21`, the GI50 was 15.3 µM and the TGI turned out to be 30.1 µM.

As to `C=CN1C(=O)OC(c2ccccc2)C1c1ccccc1` (stereo not given), the GI50 was greater than 100 µM and the TGI is greater than 100 µM.

On to `CC(=O)NC1C(CO)O[C@@H]2OC(C)(C)O[C@H]12` (stereo not given in full), for which the TGI was greater than 100 µM.

Compound `CCCCCCCCCCCC(=O)OCC1OC(n2cc(F)c(=O)[nH]c2=O)C(NC(=O)OCc2ccccc2)C(O)C1O` (stereo not given) yielded a TGI of 43.5 µM.

In turn, `O=c1[nH]c(=O)n(C2OC(COP(=O)(O)OP(=O)(O)O)C(O)C2O)cc1F` (stereo not given) registered a TGI greater than 50 µM.

On to `N#Cc1c(NC(=O)c2ccccc2)sc2c1CCC(=O)C2`, for which the GI50 is 6.27 µM and the TGI is greater than 100 µM.

Regarding `Oc1ccc2oc3ncc(Cl)c(-c4ccccc4)c3c2c1`, the GI50 is greater than 100 µM and the TGI was greater than 100 µM.

`O=c1[nH]cc(CS(=O)(=O)Cc2c[nH]c(=O)[nH]c2=O)c(=O)[nH]1` displayed a TGI greater than 100 µM.

With `O=C1c2ccccc2C(=O)c2c1ccc(C(Br)Br)c2[N+](=O)[O-]`, the GI50 is 8.52 µM and the TGI worked out at 20.9 µM.

On to `CCN(CC)CCN1C(=O)c2c(c(C)c3c(oc4cc(O)ccc43)c2C)C1=O`, for which the GI50 is 1.64 µM and the TGI is 3.03 µM.

Compound `CN(C)C[C@H]1CC[C@@H](CN(C)C)C1=O` returned a TGI greater than 50 µM.

As for `Nc1[nH]c(=O)ncc1F`, the TGI was greater than 100 µM.

`OC1CCCC1C(O)(C(F)(F)F)C(F)(F)F` (stereo not given) gave a TGI greater than 100 µM.

On to `S=c1nc(-c2ccccc2)oc(=NC2CCCCC2)n1C1CCCCC1`, for which the GI50 is 4.59 µM and the TGI stood at 24.6 µM.

Compound `Cc1cc(S(=O)(=O)Nc2nnc3c(C(F)(F)F)cc(Cl)cn23)c(S)cc1Cl` came in with a TGI greater than 100 µM.

For the compound `CC(C)(CO)CNc1nc(N)nc(Cl)c1N`, the TGI is greater than 100 µM.

`Cn1c2c([N+](=O)[O-])[se]nc2c(=O)n1-c1ccc([N+](=O)[O-])cc1` returned a TGI of 12.2 µM.

In the case of `O=C(O)C(CCc1ccccn1)c1ccccc1` (stereo not given), the TGI is greater than 100 µM.

`COC(=O)C(=O)C1(CCC(C)=O)c2ccccc2-c2ccccc21` had a TGI greater than 100 µM.

`Cc1cc2ccccc2n1CC(=O)NCC(C)C` had a TGI greater than 100 µM.

Turning to `COc1ccc(SC2c3cc(OC)c(OC)cc3Oc3nc(N)c(C#N)c(N)c32)cc1` (stereo not given), the GI50 is 1.55 µM and the TGI was found to be 2.94 µM.

As for `Cn1c(=O)c2c(-c3ccccc3)onc2n(C)c1=O`, the TGI was greater than 100 µM.

For `O=C(c1cc(O)ccc1O)c1ccccc1C(Cl)(Cl)Cl`, the TGI was greater than 100 µM.

On to `Nc1ncnc2c1c(C(F)(F)F)cn2[C@@H]1O[C@H](CO)[C@@H](O)[C@H]1O`, for which the GI50 was 0.901 µM and the TGI was greater than 100 µM.

Compound `COc1ccc2cccc(C(=O)c3ccc(C)c4c3CCC4)c2c1` had a TGI greater than 100 µM.

In the case of `C/C(=N\NC(N)=O)C(CN1CCCCC1)C(c1ccccc1)c1c(O)c2ccccc2oc1=O` (stereo not given), the TGI was greater than 100 µM.

Regarding `COc1cc(-c2cc(-c3ccc(N(C)C)cc3)nc(N3CCOCC3)c2C#N)cc(OC)c1OC`, the GI50 was 5.41 µM and the TGI was greater than 100 µM.

In turn, `COc1cc(C2C3=C(CCC3=O)Oc3cc4c(cc32)OCO4)cc(OC)c1OC` (stereo not given) had a TGI of 39.8 µM.

For the compound `CC1(O)C=CC2CCC1C2O` (stereo not given), the TGI is greater than 100 µM.

`CCC1C(C)c2c([nH]c3ccccc23)C2C(=O)N(c3ccccc3)C(=O)C21` (stereo not given) registered a TGI of 54.4 µM.

`CC(=O)/C=C/C=C(\C)CC/C=C(\C)CC(C)C` returned a TGI greater than 100 µM.

As to `COc1ccc(-c2ccc3c(NC(=O)C4CC4)n[nH]c3n2)cc1`, the GI50 was greater than 25 µM and the TGI was greater than 25 µM.

`CN(C)c1ccc(/C=C2\C[C@H]3[C@@H]4CC=C5C[C@@H](N6CCCC6)CC[C@]5(C)[C@H]4CC[C@]3(C)[C@H]2O)cc1`: the GI50 was 4.09 µM; the TGI was 8.92 µM and 20 µM.

In turn, `O=S1(=O)NNC(=NCc2ccc(Cl)cc2)c2ccccc21` displayed a TGI greater than 100 µM.

`CC(C)CCC[C@@H](C)[C@H]1CC[C@H]2[C@@H]3CC=C4C[C@@H](OC(=O)c5cccc6c(=O)c7ccccc7[nH]c56)CC[C@]4(C)[C@H]3CC[C@]12C` came in with a TGI greater than 75 µM.
